According to PubChem BioAssay AID1745845 (National Center for Advancing Translational Sciences (NCATS), 2022):
Among all 360,000 compounds or so, about 2,600 (0.72%) were called active. Inconclusive means that the source gave no clear call. Such entries were picked first, then a sample of the others. Calls come from the whole dose curve; as a rule, active = well fitted inhibition curve with a large enough effect; inconclusive = small, poorly fitted or top-dose-only effect; inactive = no such curve, though single readings can be large or run the other way. Potencies of inconclusive entries are doubtful fits and often do not repeat.
% is set by controls: 0 for no effect and ±100 for the full control effect; potency is the fitted concentration of half-maximal effect; tags give direction and shape of the fitted curve.

Assay: Primary qHTS for Inhibitors of ATXN expression; note: nearly all actives have a fitted effect of over 55% in size
Settings: HEK-293 ATXN2-luciferase reporter, luminescence, 24 h; activity change, negative = inhibition: at 57 µM (top of the series)
In short: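 qHTS (up to 57 uM final) was run with 24 h compound exposure of reporter cells at 37 °C. Each well was multiplexed: SteadyGlo luminescence measured ATXN2-luciferase expression after a fluorogenic Gly-Phe-AFC viability readout (25 uM final).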
In the case of `CCOC(=O)c1c(N2C(=O)C=CC2=O)sc(C)c1C`, the Potency is reported as inconclusive: 31.6 µM [inhibitor, single point].
In the case of `CC(C)(C)OC(=O)NCc1ccc(CNC(=O)c2[nH]cnc2C(=O)NC2CCN(C(=O)OC(C)(C)C)CC2)cc1`, the Potency is reported as inconclusive: 28.2 µM [inhibitor, single point].
With `CSc1ccc(C2=C/C(=C3/SC(=S)NC3=O)c3ccccc3O2)cc1` the Potency was inconclusive: 7.08 µM [inhibitor, single point].
With `NC(=O)Nc1sc(-c2ccc(F)cc2)cc1C(N)=O` the Potency was inconclusive: 19.3 µM [inhibitor, partial curve].
In the case of `Brc1ccc(-c2nnc3ccc(N4CCN(c5ccccc5)CC4)nn23)cc1`, the Potency is reported as inconclusive: 28.2 µM [inhibitor, single point].
With `COc1ccc(-c2noc(N3CCC(C(=O)N(C)c4cc(Cl)ccc4OC)CC3)n2)cc1` the Potency was inconclusive: 20 µM [inhibitor, partial curve].
For `Cc1ccccc1N(CC(=O)N/N=C/c1ccccc1Cl)C(=O)c1ccccc1`, the Potency was inconclusive: 28.2 µM [inhibitor, partial curve, poor fit].
For `CCC(C)(C)c1ccc(OCCCC[n+]2ccccc2)c(C(C)(C)CC)c1`, the Potency was inconclusive: 15.8 µM [inhibitor, partial curve].
With `CCOc1ccccc1N=CC1=C(O)CC(c2ccccc2)CC1=O` (stereo unspecified) the Potency was inconclusive: 7.52 µM [inhibitor, partial curve, poor fit].
In the case of `CCc1ccc(NC(=O)c2ccc3c(=O)n4c(nc3c2)CCCCC4)cc1`, the Potency is reported as inconclusive: 22.4 µM [inhibitor, partial curve].
For `O=C(CCCC(=O)NN=Cc1ccc(Cl)cc1Cl)NN=Cc1ccc(Cl)cc1Cl`, the Potency was inconclusive: 39.8 µM [inhibitor, partial curve, poor fit].
With `CCN(Cc1ccccc1)S(=O)(=O)c1ccc(C(=O)N(CCCN(C)C)c2nc3ccc(F)cc3s2)cc1` the Potency was inconclusive: 35.5 µM [inhibitor, single point].
With `COc1ccc2cc1Oc1ccc(cc1)CC1c3c(cc(OC)c4c3Oc3cc5c(cc3O4)CCNC5C2)CCN1C` (stereo unspecified) the Potency was active: 10.6 µM.
With `O=C(NNS(=O)(=O)c1ccc(Cl)cc1)c1ccc(S(=O)(=O)N2CCCCC2)cc1` the Potency was inconclusive: 8.91 µM [inhibitor, single point].
With `Cc1ccc(C(=O)NNC(=O)c2cc3cc4ccccc4nc3s2)cc1` the Potency was inconclusive: 39.8 µM [inhibitor, single point].
With `Cc1ccc(C(=O)CSc2cc(C)nc(SCC(=O)c3ccccc3)n2)cc1` the “activity change, negative = inhibition” value was inactive: -12.3%.
In the case of `Cc1cc(OCC(=O)N(Cc2ccc(N(C)C)cc2)C2CCS(=O)(=O)C2)cc(C)c1Cl` (stereo unspecified), the Potency is reported as inconclusive: 28.2 µM [inhibitor, single point].
With `O=C(Nc1ccccn1)c1onc2c1CCCC2` the Potency was inconclusive: 15.8 µM [inhibitor, single point].
In the case of `Cc1ccc2c(c1)Oc1ccc(NC(=O)CCl)cc1C(=O)N2`, the Potency is reported as inconclusive: 39.8 µM [inhibitor, single point].
For `COc1cc(Nc2c3c(nc4ccccc24)CCCC3)cc(OC)c1OC`, the “activity change, negative = inhibition” value was inactive: 34.7%.
With `Cc1ccc2nc(/N=C(\N)NC(=O)NC3CCCCC3)nc(C)c2c1` the Potency was inconclusive: 28.2 µM [inhibitor, single point].
In the case of `CC(NC(=O)c1cccc2c1Oc1ccccc1S2)C(=O)O` (stereo unspecified), the “activity change, negative = inhibition” value is reported as inactive: 7.1%.
For `Cc1ccc2cccc(Oc3ncnc4sc(C)c(C)c34)c2n1`, the activity change, negative = inhibition was inactive: -23.4% [at 11.3 µM].
For `O=[N+]([O-])c1ccc(/C=N/n2cnc3ccccc32)s1`, the Potency was inconclusive: 31.6 µM [inhibitor, partial curve].
With `COc1cc(OC)cc(-c2c(-c3cccs3)c3cc(-c4ccc5[nH]ccc5c4)ccc3n2C)c1` the “activity change, negative = inhibition” value was inactive: 7.83%.
With `O=C(CCc1ccccc1)NC(c1cccs1)c1cc(Cl)c2cccnc2c1O` (stereo unspecified) the Potency was active: 13.4 µM.
For `CCCNC(=O)COC(=O)c1ccc(-c2ccccc2)cc1`, the Potency was inconclusive: 1.5 µM [inhibitor, partial curve, poor fit].
In the case of `CCCCN(CCCC)C(=O)CSc1nnc2n(C)c(=O)c3c4c(sc3n12)CCCC4`, the Potency is reported as inconclusive: 4.47 µM [inhibitor, single point].
With `COc1ccc(-c2cc(CNc3nc(NCc4ccccc4OC)nc4ccsc34)on2)cc1` the Potency was inconclusive: 31.6 µM [inhibitor, single point].
In the case of `CC(C)CC(COCc1ccc([N+](=O)[O-])cc1)N1CCN(C(=O)c2ccc(C(F)(F)F)cc2)CCC1=O` (stereo unspecified), the Potency is reported as inconclusive: 39.8 µM [inhibitor, single point].
With `O=C(c1ccc2c(c1)OCO2)N(Cc1cccs1)C1(C(=O)NC2CCCCC2)CCCCC1` the Potency was inconclusive: 26.7 µM [inhibitor, partial curve, poor fit].
In the case of `CCOC(=O)Cc1c(C)nc2c(-c3cccc(Br)c3)c[nH]n2c1=O`, the Potency is reported as inconclusive: 25.1 µM [inhibitor, single point].
In the case of `Cc1ccc(/C=N/n2c(-c3ccccc3)csc2=S)cc1`, the “activity change, negative = inhibition” value is reported as inactive: -1.25%.
With `Cc1[nH]n(-c2ccccc2)c(=O)c1/C=N/Nc1nncc(-c2ccccc2)n1` the Potency was active: 2.82 µM.
With `COc1ccc(NC(=O)Cn2c(-c3ccccc3)cn(-c3ccc(C)cc3)c2=O)cc1` the “activity change, negative = inhibition” value was inactive: 3.64%.
In the case of `CCN(CC)CCNC(=O)c1ccc(NC(=O)c2ccccc2-c2ccc(C(F)(F)F)cc2)cc1`, the Potency is reported as inconclusive: 25.1 µM [inhibitor, partial curve].
For `COc1ccc(/C=C2/CSC/C(=C/c3ccc(OC)c(OC)c3)C2=O)cc1OC`, the Potency was active: 5.62 µM.
With `Cc1nn(-c2ccc(F)cc2)c(C)c1NS(=O)(=O)c1ccc2ccccc2c1` the Potency was inconclusive: 39.8 µM [inhibitor, single point].
In the case of `CCc1ccc(NC(=O)C(CC)Sc2nc3cc4c(cc3c(=O)n2Cc2ccco2)OCO4)cc1` (stereo unspecified), the Potency is reported as inconclusive: 28.2 µM [inhibitor, single point].
In the case of `COc1ccccc1-c1cc(NC=O)c2ncc(-c3cccc(C(C)=O)c3)n2c1`, the Potency is reported as inconclusive: 39.8 µM [inhibitor, single point].
In the case of `CN(/N=C/c1cccc(Br)c1)C1=NS(=O)(=O)c2ccccc21`, the Potency is reported as inconclusive: 7.94 µM [inhibitor, single point].
For `CCOC(=O)c1c(C)[nH]c(C(=O)OC(C)C(=O)NCc2ccccc2)c1C` (stereo unspecified), the Potency was inconclusive: 28.2 µM [inhibitor, partial curve, poor fit].
For `CCc1nc2c(OCCC3CCCCC3)cccn2c1N(C)C(=O)c1ccncc1`, the “activity change, negative = inhibition” value was inactive: -18%.
With `O=C(c1ccc(Cl)c(S(=O)(=O)N2CCc3ccccc32)c1)N1CCN(c2ccccc2O)CC1` the Potency was inconclusive: 39.8 µM [inhibitor, single point].
For `CC(C)[C@H](CO)Nc1nc(NCc2ccc(S(N)(=O)=O)cc2)c2ncn(C(C)C)c2n1`, the Potency was inconclusive: 17.8 µM [inhibitor, partial curve, poor fit].
With `CCNc1nc(NC(C)(C)C)nc(SC(C(C)=O)C(C)=O)n1` the Potency was inconclusive: 11.2 µM [inhibitor, partial curve, poor fit].
With `CCOc1ccc(CCNC(=O)c2cnc3sc(N4CCCCC4)nn3c2=O)cc1` the “activity change, negative = inhibition” value was inactive: 7.03%.
For `Clc1ccc(-c2nc3cnccn3c2NC2CCCC2)cc1`, the Potency was inconclusive: 31.6 µM [inhibitor, partial curve, poor fit].
For `N=c1ccn(Cc2ccc(Cl)cc2)cc1`, the Potency was inconclusive: 15.8 µM [inhibitor, partial curve].
With `CNC(=O)C1CCN(Cc2cc3ccccc3n2Cc2cccc(C)c2)CC1` the Potency was inconclusive: 20 µM [inhibitor, single point].
With `CC(=O)Nc1nc2ccccc2n1CCOc1ccccc1` the “activity change, negative = inhibition” value was inactive: -15.1%.
With `N#CC1(c2ccc(F)cc2)CCC(=O)CC1` the “activity change, negative = inhibition” value was inactive: -0.899%.
In the case of `COCCN1C(=O)C(CC(=O)Nc2ccccc2)SC1=Nc1ccc(OC)cc1` (stereo unspecified), the “activity change, negative = inhibition” value is reported as inactive: -15%.
With `Cc1ccccc1OCC(=O)Nc1cccc(C(=O)O)c1` the Potency was active: 0.168 µM.
In the case of `C=CCN(CC=C)Cc1c(O)ccc2c1oc(=O)c1ccccc12`, the “activity change, negative = inhibition” value is reported as inactive: -5.59%.
In the case of `O=C(NCCCc1nc2ccccc2n1Cc1ccccc1)C1CCCCC1`, the Potency is reported as inconclusive: 39.8 µM [inhibitor, partial curve, poor fit].
For `Cc1ccc(-c2csc3ncnc(SCC(=O)c4ccc5c(c4)OCCO5)c23)cc1`, the “activity change, negative = inhibition” value was inactive: -11.5%.
With `CC1CCC(C(C)C)C(OC(=O)Cn2c(-c3ccc(Cl)cc3)[n+](C)c3ccccc32)C1` (stereo unspecified) the Potency was inconclusive: 31.6 µM [inhibitor, single point].
With `CCc1cc(-c2n[nH]c(=S)n2Cc2ccccc2)cs1` the “activity change, negative = inhibition” value was inactive: -5.22%.
For `O=C1c2cccnc2C(=O)N1Cc1ccc(S(=O)(=O)N2CCN(c3ccc(Cl)cc3)CC2)cc1`, the Potency was inconclusive: 10 µM [inhibitor, partial curve, poor fit].
In the case of `Cc1ccccc1-c1ccc(CN2C(C)C(=O)N(Cc3cn(Cc4ccco4)nn3)CCS2(=O)=O)cc1` (stereo unspecified), the Potency is reported as inconclusive: 25.1 µM [inhibitor, partial curve].
In the case of `CCO[C@H]1OC(C(=O)NCc2nc3ccccc3[nH]2)=C[C@@H](C2CCCCC2)[C@@H]1CCCO`, the “activity change, negative = inhibition” value is reported as inactive: -13.3%.
In the case of `COc1ccc(Cl)cc1NC(=O)c1ncn(-c2ccccc2)n1`, the “activity change, negative = inhibition” value is reported as inactive: 0.34%.
For `CC(=O)Nc1ccc(Nc2nc(C)nc3c2nnn3Cc2ccccc2Cl)cc1`, the Potency was inconclusive: 35.5 µM [inhibitor, single point].
For `CN(C)CCCN(C(=O)c1ccco1)c1nc2ccc(Cl)cc2s1`, the Potency was inconclusive: 39.8 µM [inhibitor, single point].
In the case of `OC(CNCCc1ccc(C(F)(F)F)cc1)COc1ccc2ccccc2c1` (stereo unspecified), the Potency is reported as active: 28.2 µM.
